{"source": "PubChem BioAssay AID686978", "about": "(National Center for Advancing Translational Sciences (NCATS), 2013)", "note": "The campaign covered roughly 420,000 compounds. About 64,000 (15%) were called active. Inconclusive results, whose numbers are uncertain, are shown with a selection of clear calls. The call rests on the fitted dose curve; in most records, active means well fitted inhibition curve with a large enough effect; inconclusive means small, poorly fitted or top-dose-only effect; inactive means flat fitted curve, though single readings scatter. Potencies of inconclusive entries are left out as doubtful fits. On the % scale 0 is the no-effect control and ±100 the full control effect; potency means the concentration at half of the fitted maximal effect; tags describe the fitted curve by direction and shape."}
{"test": "qHTS for Inhibitors of human tyrosyl-DNA phosphodiesterase 1 (TDP1): qHTS in cells in absence of CPT; further: nearly all actives have a fitted effect of over 55% in size", "details": "DT40 Tdp1-/- hTDP1 cells, no CPT, ATP luminescence, 48 h; activity change, negative = growth inhibition: at 46.2 µM (top of the series) unless noted", "summary_of_the_method": "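No-CPT arm: Tdp1-/-;hTDP1 DT40 cells (400/well) plus compounds, incubated ≥48 hr at 37 °C. Readout CellTiter-Glo luminescence.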"}
{"compound": "O=C(CN1CCN(S(=O)(=O)c2ccc(F)cc2)CC1)Nc1cc(C(F)(F)F)ccc1Cl", "Potency": "inconclusive [inhibitor, single point]"}
{"compound": "COc1cc(C(=O)OCC(=O)Nc2sccc2C(N)=O)cc(OC)c1OC", "Potency": "active: 3.66 µM"}
{"compound": "CC(C)(C)c1nc(SCC(=O)NNC(=O)c2ccccc2)c2ccccc2n1", "Potency": "inconclusive [inhibitor, single point]"}
{"compound": "CSc1nnc2c3ccccc3c3ccccc3c2n1", "Potency": "active: 18.4 µM"}
{"compound": "Cc1ccc(N(C)S(=O)(=O)c2cccc(C(=O)Nc3ccc(C)cn3)c2)cc1", "Potency": "inconclusive [inhibitor, single point]"}
{"compound": "CCOC(=O)c1sc(N/N=C/c2ccccc2)nc1C", "Potency": "inconclusive [inhibitor, single point]"}
{"compound": "CC(C)CCNC(=O)C1CCN(C(=O)N2CCOc3ccc(Cl)cc32)CC1", "Potency": "inconclusive [inhibitor, single point]"}
{"compound": "Cc1cc(C(=O)CSc2nc(N)cc(=O)[nH]2)c(C)n1CCc1ccc(F)cc1", "Potency": "active: 11.6 µM"}
{"compound": "CCOc1ccc(NC(=O)C2CCN(S(=O)(=O)c3ccc4c(c3)NC(=O)C(C)S4)CC2)cc1", "note": "(stereo not given)", "Potency": "inconclusive [inhibitor, single point]"}
{"compound": "CCOCc1nnc(NC(=O)C2c3ccccc3Oc3ccccc32)s1", "Potency": "inconclusive [inhibitor, single point]"}
{"compound": "COc1ccc(C(=O)Nc2ccc(-c3cc4ccccc4oc3=O)c(C)c2)cc1OC", "Potency": "active: 16.4 µM"}
{"compound": "Cc1cc(C(F)(F)F)nn1CC(=O)Nc1ccc2c(c1)OCO2", "Potency": "inactive"}
{"compound": "CCN(CC)CC1C(=O)N(c2ccc(OC)cc2)C1c1ccccc1", "note": "(stereo not given)", "Potency": "inconclusive [inhibitor, single point]"}
{"compound": "N#CC(=Cc1ccnc2ccccc12)c1ccccc1", "Potency": "active: 20.6 µM"}
{"compound": "Cc1cc(OCC(=O)Nc2ccc(Br)cc2)cc2c1C(=O)CC(C)(C)O2", "Potency": "active: 23.1 µM"}
{"compound": "CC(C)(C)OC(=O)N(CCc1ccccc1)Cc1ccccc1OCc1cccc(NC(=O)C2CCCC2)c1", "Potency": "inconclusive [inhibitor, partial curve, poor fit]"}
{"compound": "Cc1ccc2ccccc2c1C(O)c1ncc(-c2ccccc2F)[nH]1", "note": "(stereo not given)", "Potency": "inactive"}
{"compound": "Cc1cc(C)nc(NC(=O)c2ccc(Cl)c([N+](=O)[O-])c2)n1", "activity change, negative = growth inhibition": "inconclusive: -32.2% [inhibitor]"}
{"compound": "CCCCCCCCN1C(=O)[C@H](CC(=O)NCc2ccc(C)o2)C[C@@]2(C(=O)OCC)CCC=C12", "Potency": "active: 16.4 µM"}
{"compound": "CCS(=O)(=O)c1ccc(O)c(NC(=O)COc2ccc(Cl)cc2)c1", "Potency": "inactive"}
